Screen size: about 150,000 compounds; about 540 (0.36%) showed an effect of 50% or more. The list shows a part of the results.

In the assay the test system is Plasmodium falciparum. Kind of assay: Primary screen in NF54 nanoGlo assay, in single point, at 2uM, 72h; a lower Z score goes with more inhibition. The format is functional, Erythrocyte. The settings on record: timepoint 72 hour.
One may read the % Inhibition as the drop in the measured response relative to a control, in per cent. Regarding `COCCOCC(=O)N1CCC2(CC1)C[C@@H](c1ccccc1)C(=O)N(C)C2`, the “% Inhibition” value is reported as -9% and the Z score worked out at 1.2.
In the same order, the values of `COc1cc(=O)n(-c2ccccc2)cc1C(=O)N1CC(Oc2cc(C)n(C)c(=O)c2)C1` are -15% and 1.74.
The matching figures for `O=C(CN1CCc2cccc(F)c21)NC[C@H]1CCCO1`: -11% and 0.97.
The matching figures for `Cc1cc(C(=O)Nc2c(C)n(C)n(-c3ccccc3)c2=O)c(C)s1`: -1% and 0.15.
Take `O=C(Nc1ccc2ccccc2c1)c1ccc(-n2cccn2)nc1`: the “% Inhibition” value came out at 4% and the Z score was -0.48.
The matching figures for `Cc1cscc1-c1cc(N)nc(N2CCOCC2)n1`: -4% and 0.62.
The matching figures for `O=C(Nc1ncccn1)[C@H]1C[C@@H]1C1CC1`: -11% and 2.05.
The matching figures for `CS(=O)(=O)CCC(=O)N1CCCCC[C@H]1c1ccccc1C(F)(F)F`: -2% and 0.28.
For the compound `COc1ccccc1CNCc1ncc(Br)s1`, the “% Inhibition” value is on record as -6% and the Z score is recorded as 0.6.
The matching figures for `CCCN(CC(=O)O)S(=O)(=O)c1ccc(Cl)cc1Cl`: -14% and 1.72.
Regarding `O=C(NC[C@H]1COc2ccccc2O1)c1ccc(NC(=O)c2ccc(Cl)cc2Cl)cc1`, the “% Inhibition” value is -10% and the Z score is 1.32.
Regarding `CCCNS(=O)(=O)c1cc2n(c1)CCCNC2=O`, the “% Inhibition” value is given as -16% and the Z score amounted to 1.86.
For `CN(C[C@H](O)COCCN1CCOCC1)S(=O)(=O)O`, the “% Inhibition” value was -5% and the Z score worked out at 0.83.
`O=C(c1cccc(CNS(=O)(=O)c2cccs2)c1)N1CCCC1`: the “% Inhibition” value is on record as -34% and the Z score is given as 4.02.
In the same order, the values of `O=C(C1CCS(=O)(=O)CC1)N1C[C@@H]2CC[C@H]1CN(Cc1ccccn1)C2` are -2% and 0.29.
In the same order, the values of `C[C@@H](CC(=O)N1CCN(c2ccccc2)CC1)n1ccnc1` are -3% and 0.45.
Take `CCn1ccc(C(=O)NCc2nccn2C(C)C)cc1=O`: the “% Inhibition” value is -9% and the Z score turned out to be 1.81.
The matching figures for `COCCN1C(=O)c2ccccc2C(C(=O)N2CCCC(C(N)=O)C2)C1c1ccccc1` (stereo not drawn): 5% and -0.58.
For the compound `COC[C@H](C)N(C)S(=O)(=O)c1ccc(C(=O)O)cc1`, the “% Inhibition” value was -7% and the Z score was found to be 0.98.
The matching figures for `CC(C)c1csc(CN2CCC(CCC(=O)N3CCc4ccccc4C3)CC2)n1`: -8% and 1.54.
For `Cc1nnc(NS(=O)(=O)c2c(C)sc3ccccc23)s1`, the “% Inhibition” value was determined as 32% and the Z score is recorded as -0.99.
In the same order, the values of `Cc1ccc(N2C(=O)CN(S(=O)(=O)c3ccc(C)cc3)C[C@@]2(C)C(=O)NCCC(C)C)cc1` are -5% and 0.75.
In the same order, the values of `COc1ccc(-c2noc([C@H](C)NC(=O)N3CCNC(=O)C3)n2)cc1OC` are 40% and -5.5.
`O=c1cc(Cc2ccccc2)[nH]c2c(-c3ccccc3)c(C(F)(F)F)nn12`: the “% Inhibition” value amounted to 30% and the Z score is recorded as -3.45.
As for `CN1CCCN(c2nc(-c3ccccc3)nc3nc(-c4ccccc4)oc23)CC1`, the “% Inhibition” value was determined as 7% and the Z score was -0.98.
In the same order, the values of `CCn1ncc2c1CCCC2NC(C)C(=O)N1CCCC1` (stereo not drawn) are -12% and 2.25.
In the same order, the values of `O=C(NC[C@H](NC(=O)C1=COCCC1)C1CCCCC1)C1=COCCC1` are -2% and 0.38.
In the same order, the values of `CCC[C@@H](C#N)N(C)S(=O)(=O)c1ccccc1C(C)(C)C` are -3% and 0.38.
Consider `O=C(c1cccc(Br)c1)N1CC(=O)N2CCc3ccccc3[C@@H]2C1`, for which the “% Inhibition” value is on record as -2% and the Z score came to 0.27.
Consider `Cc1cccnc1N1CC[C@H](N2CCN(C)CC2)[C@H](CCC(=O)O)C1`, for which the “% Inhibition” value is -8% and the Z score worked out at 1.55.
Take `O=C1C2CC=CCC2C(=O)N1c1ccccn1` (stereo not drawn): the “% Inhibition” value was -9% and the Z score stood at 1.32.
The matching figures for `c1csc(CN2CC[C@H](c3nc4ccccc4s3)C2)c1`: 6% and -0.85.
`O=c1nc(-c2ccccc2)on1Cc1cc(F)ccc1F`: the “% Inhibition” value is given as -29% and the Z score was 3.41.
With `CC1(CN2C(=O)[C@H]3CCCCN3C2=O)Cc2ccccc2C1`, the “% Inhibition” value is -2% and the Z score was 0.22.
The matching figures for `CCc1noc(CN2c3ccccc3C[C@@H]2C)n1`: -1% and 0.09.
The matching figures for `O=C1C[C@H](c2ccccc2F)c2sccc2N1`: -9% and 1.34.
For `CNC(=O)[C@@H]1CN(C(=O)CCc2cc(OC)no2)C[C@H]1c1nc(C)no1`, the “% Inhibition” value is -9% and the Z score is given as 1.4.
In the same order, the values of `CC(=O)c1cccc(S(=O)(=O)N2CCN(C(=O)c3cc(C)nc4ccccc34)CC2)c1` are -5% and 0.58.
In the same order, the values of `CC(C)c1cc(N2CCCC(O)C2)nc(CN2CCCC(O)C2)n1` (stereo not drawn) are -8% and 1.11.
The matching figures for `OC[C@@H]1CCCN1Cc1nc(-c2ccccc2)no1`: 8% and -1.06.
`Cc1cc2c(=O)n(CC(=O)N(C)c3ccccc3)c3cccnc3n2n1`: the “% Inhibition” value is reported as -21% and the Z score was 2.25.
The matching figures for `CC(C)N(C)S(=O)(=O)C1CON(C)C1c1cccc(OCc2ccccc2)c1` (stereo not drawn): -8% and 1.28.
The matching figures for `COc1cc2c(cc1OC)CN(C(=O)C[C@@H]1NC(=O)N(Cc3ccccc3Cl)C1=O)CC2`: -14% and 1.96.
On to `CN(C)c1nc2cc(NC(=O)Cc3noc4ccccc34)ccc2o1`, for which the “% Inhibition” value is given as -15% and the Z score stood at 2.38.
Consider `CCC[C@]1(CO)CCCN(CCn2ccnc2)C1`, for which the “% Inhibition” value is given as 11% and the Z score was -1.05.
`COCc1nc(C)cc(N2CC3CC=CCC3C2)n1` (stereo not drawn): the “% Inhibition” value was -20% and the Z score was 2.69.
In the same order, the values of `FCCn1ncnc1CN1CCCCC[C@H]1C1CCCCC1` are 48% and -5.68.
Take `CC1(NC(=O)[C@@H]2CC[C@H](C(=O)NC3(C)CCCOC3)C2)CCCOC1` (stereo partly drawn): the “% Inhibition” value amounted to 4% and the Z score is given as -0.83.
Take `C=CCn1c(C)c(CC(=O)Nc2ccccc2C)c(=O)n2nc(-c3ccc(C)cc3)nc12`: the “% Inhibition” value was -3% and the Z score turned out to be 0.5.
For the compound `CC(C)c1ocnc1C(=O)N[C@H]1CCc2nccn2C1`, the “% Inhibition” value is listed as -2% and the Z score worked out at 0.41.
In the same order, the values of `C[C@@H](Cc1ccsc1)n1ccnc1-c1ccc(-n2ccnc2)cc1` are -14% and 2.62.
As for `Cc1nc(C(=O)N[C@H]2CC[C@H]2NC2CCCCCCC2)cs1`, the “% Inhibition” value is recorded as 4% and the Z score was -0.48.
Take `CN(Cc1cccn1-c1ncccn1)C[C@H]1CCCCO1`: the “% Inhibition” value was -5% and the Z score came to 1.07.
The matching figures for `O=C(NCC1(NC(=O)C2CCCOCC2)CC1)C1CCCOCC1` (stereo not drawn): -6% and 0.86.
With `COC(=O)c1c(OCCO)nn(C)c1N`, the “% Inhibition” value was -3% and the Z score was found to be 0.47.
In the same order, the values of `COc1nscc1-c1noc(CCn2cccn2)n1` are -12% and 1.64.
The matching figures for `Nc1c(Cl)cc(Cl)c(N)c1Cl`: 36% and -5.25.
For `Cc1cc(Cl)ccc1C(=O)NC(C)C(C)CO` (stereo not drawn), the “% Inhibition” value is listed as -4% and the Z score was determined as 0.57.
The matching figures for `CCOc1ccc(NC(=O)C2CCN(c3c(C(=O)N(CC)CC)cnc4snc(C)c34)CC2)cc1`: 5% and -0.93.
As to `Cc1cc(O[C@H]2CCN(S(=O)(=O)c3cccs3)C2)nc(C)n1`, the “% Inhibition” value is -7% and the Z score is 1.1.
On to `Cc1cnn(C2(C(=O)O)CCN(c3nc4ccccc4o3)CC2)c1`, for which the “% Inhibition” value is -2% and the Z score is 0.4.
Turning to `CN1CC[C@H](N(C)CCC(=O)NCc2cc(F)c(F)cc2F)C1`, the “% Inhibition” value is recorded as 4% and the Z score is listed as -0.62.
The matching figures for `CCCS(=O)(=O)N1CC(=O)N(c2ccc(C)c(Cl)c2)[C@](C)(C(=O)NC2CCCCCCC2)C1`: -16% and 1.97.
Regarding `C[C@H]1CCCCN1CCN(C)S(=O)(=O)NCc1ccccc1`, the “% Inhibition” value was -2% and the Z score turned out to be 0.43.
The matching figures for `CNC(=O)c1nsc(C(=O)N2CCN(c3cc(Cl)ccc3C)CC2)c1N`: -10% and 1.21.
Regarding `CN(CCC#N)S(=O)(=O)NC1CC2CCC1(C)C2(C)C` (stereo not drawn), the “% Inhibition” value is given as -2% and the Z score amounted to 0.32.
On to `CCn1ncc(C(=O)N[C@H](c2cnc3ccccc3c2)C2CC(O)C2)c1C` (stereo partly drawn), for which the “% Inhibition” value was -10% and the Z score turned out to be 1.01.
The matching figures for `COc1ccc(C(=O)N(CCN2CCCC2)C2CCOCC2)cc1F`: -9% and 1.39.
With `CN(Cc1ccccc1)CC(C)(C)CNCc1cccnc1N1CCC(C(N)=O)CC1`, the “% Inhibition” value is -3% and the Z score was 0.57.
As to `C=CCC1(CC=C)CCCN1C(=O)[C@@H]1CCCCO1`, the “% Inhibition” value is -5% and the Z score came out at 1.05.
`CCCc1ncncc1C(=O)N(C)CCn1nc(C)cc1C`: the “% Inhibition” value is on record as -7% and the Z score worked out at 1.42.
As for `CCOc1ccc(N2CCCCn3c2nc2c3c(=O)n(Cc3cccc(C)c3)c(=O)n2C)cc1`, the “% Inhibition” value is -8% and the Z score is recorded as 0.93.
The matching figures for `CCC(=O)Nc1ccc2c(c1)c(=O)n(-c1ccccc1)n2CC(=O)Nc1ccccc1C`: -9% and 1.19.
For the compound `Cc1nnc2ccc(N3CC(N(C)S(=O)(=O)Cc4cc(F)ccc4F)C3)nn12`, the “% Inhibition” value is given as -8% and the Z score amounted to 1.15.
Consider `CCc1cc(=O)c2cc(NC(=O)C3(c4ccc(Cl)cc4)CCOCC3)ccc2[nH]1`, for which the “% Inhibition” value is given as -24% and the Z score was 2.46.
In the same order, the values of `Cc1ccc2nc(-c3ccccc3)c(CN3CCC(C)CC3)c(O)c2c1` are -8% and 1.57.
As to `O=C(O)CCc1nnc2n(CCOc3ccc(Cl)cc3)c3ccccc3n2c1=O`, the “% Inhibition” value is on record as -12% and the Z score is recorded as 2.34.
The matching figures for `O=C(C1CCCC1)N1C[C@@H]2CN(Cc3cc(F)cc(F)c3)C[C@]2(C(=O)O)C1`: -16% and 1.46.
On to `CCN1c2cc(C(=O)NCc3ccccc3)ccc2C(=O)N2CCCC[C@H]21`, for which the “% Inhibition” value was found to be 34% and the Z score is reported as -0.65.
In the same order, the values of `Cc1ccccc1[C@@]1(CC(=O)N2CCN(CCC(N)=O)CC2)CC(=O)N(Cc2cccnc2)C1=O` are 7% and -0.98.
The matching figures for `Cc1ccc(-c2ncccc2NC(=O)NC[C@H]2CCCN2S(C)(=O)=O)s1`: -9% and 1.75.
Turning to `O=C(NCC1CCC(F)(F)CC1)N1CCC([C@@H]2CCCO2)CC1`, the “% Inhibition” value is recorded as -7% and the Z score is given as 0.9.
With `CC(=O)NCCCNC(=O)NCC(C)(C)c1ccc(F)cc1Cl`, the “% Inhibition” value turned out to be 15% and the Z score is on record as -2.03.
As to `C[C@H](NC(=O)c1cncc(O)c1)c1nncn1C`, the “% Inhibition” value is given as -4% and the Z score worked out at 0.69.

(Values after ChEMBL document CHEMBL4888484, “Replenishing the malaria drug discovery pipeline: Screening and hit evaluation of the MMV Hit Generation Library 1 (HGL1) against asexual blood stage Plasmodium falciparum ,using a nano luciferase reporter read-out” (2022).)
